# Source: the supplement of paper PMC12217912
# This is one part of the list. The full chains were built here from the parent and the listed change. Inactive controls read about 0.05.
# B1: TEV protease; numbered along this chain (parent)
# chain: MGESLFKGPRDYNPISSSICHLTNESDGHTTSLYGIGFGPFIITNKHLFRRNNGTLVVQSLHGVFKVKDTTTLQQHLVDGRDMIIIRMPKDFPPFPQKLKFREPQREERICLVTTNFQTKSMSSMVSDTSCTFPSGDGIFWKHWIQTKDGQCGSPLVSTRDGFIVGIHSASNFTNTNNYFTSVPKNFMELLTNQEAQQWVSGWRLNADSVLWGGHKVFMVKPEEPFQPVKEATQL
# Variants of: B1
# Assay: raw area under fraction-flipped curve 0-4 h after induction (AUC4h, not background-subtracted), DNA-recorder readout of cleavage of the substrate (dimensionless); higher = more cleavage of the substrate by the protease variant
# Details: temperature: 34 °C; time window: 0-4 h after rhamnose induction
# Procedure: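 In vivo DNA recorder in E. coli TOP10(DE3) ΔrhaA at 34 °C. Each TEVp single-site mutant (parent TEVp 0) is paired with a single-site variant of the 7-mer TEVs (canonical ENLYFQ|S). The substrate sits between flexible linkers in a Bxb1-sfGFP-TEVs-SsrA fusion, so cleavage stabilises Bxb1 and speeds flipping of a recombination array, read by NGS. The value is the raw area under the fraction-flipped curve over 0-4 h after rhamnose induction (AUC4h), with ≥20 reads per time point. It is not background-subtracted; inactive controls average about 0.047.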
# 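Note: Bxb1 expression induced with 0.2% (w/v) L-rhamnose at OD600 near 0.5, cultures sampled hourly, flipped fraction per protease–substrate barcode pair counted by paired-end Illumina sequencing.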
Variant,area with substrate CNLYFQS,area with substrate HNLYFQS,area with substrate PNLYFQS,area with substrate TNLYFQS,area with substrate YNLYFQS,area with substrate FNLYFQS,area with substrate LNLYFQS,area with substrate MNLYFQS,area with substrate QNLYFQS,area with substrate VNLYFQS,area with substrate WNLYFQS,area with substrate KNLYFQS,area with substrate NNLYFQS,area with substrate INLYFQS,area with substrate SNLYFQS,area with substrate GNLYFQS,area with substrate RNLYFQS
G2C,0.0802,0.0752,0.0776,0.0696,0.0799,–,–,–,–,–,–,–,–,–,–,–,–
G2L,0.0699,0.0675,–,0.0638,–,0.0587,0.065,0.0765,0.0738,0.0703,0.0574,–,–,–,–,–,–
G2R,0.0703,0.0684,–,–,–,–,0.0642,0.0739,–,–,–,0.0686,0.0606,–,–,–,–
E3L,0.0315,0.0622,0.0714,0.0686,0.0642,–,0.0426,0.0632,–,–,–,–,0.0572,0.0612,0.0548,–,–
E3T,0.119,–,–,0.0713,–,–,0.0559,–,–,–,–,–,–,–,0.059,–,–
S4Q,0.0727,0.0648,0.0612,0.058,0.0674,–,0.056,–,–,0.0643,0.0546,0.0777,–,0.033,0.0599,–,–
L5A,0.0687,0.0753,0.0811,–,–,0.0678,–,–,–,–,0.0704,0.0677,–,–,–,0.0624,–
L5C,0.0821,–,0.072,–,0.0483,–,0.0683,–,0.0561,–,–,–,–,0.072,0.076,–,–
L5K,0.0586,0.0689,0.068,0.0661,–,–,–,0.0513,–,–,0.0467,0.0697,–,–,–,–,–
L5N,0.0685,0.0562,–,0.0691,–,–,0.0779,0.0792,–,–,0.0435,–,0.0698,0.0558,–,0.0904,–
L5V,0.08,0.0634,0.0765,0.067,0.0462,–,–,–,–,–,0.0599,–,–,–,–,0.0811,–
L5W,0.0717,0.0639,0.0637,–,0.0659,–,–,0.0712,–,–,0.0674,–,–,0.0505,0.067,0.104,–
F6D,0.0932,–,0.0682,0.0674,–,0.0592,0.0713,–,–,–,0.0527,0.0685,–,–,0.117,0.0755,–
F6G,0.0709,0.0674,–,–,–,0.0622,0.0637,–,–,–,0.0491,0.0604,0.0693,0.0668,–,–,–
F6I,0.062,0.055,–,0.0699,–,–,0.0659,–,0.0463,0.0796,–,–,–,–,0.0517,–,–
F6P,0.0668,0.0445,0.0656,0.0585,0.0581,–,0.0522,–,–,0.0642,–,0.0731,–,–,–,0.0619,–
F6S,0.0745,0.061,–,0.0675,0.0806,0.0639,–,–,–,0.0726,0.0508,–,–,–,–,–,–
F6W,0.0595,0.0574,–,0.0674,–,0.0849,0.057,–,–,–,0.0409,–,–,0.058,–,–,–

Variant,area with substrate CNLYFQS,area with substrate HNLYFQS,area with substrate PNLYFQS,area with substrate TNLYFQS,area with substrate YNLYFQS,area with substrate FNLYFQS,area with substrate LNLYFQS,area with substrate MNLYFQS,area with substrate QNLYFQS,area with substrate VNLYFQS,area with substrate WNLYFQS,area with substrate KNLYFQS,area with substrate NNLYFQS,area with substrate INLYFQS,area with substrate SNLYFQS,area with substrate GNLYFQS,area with substrate RNLYFQS
K7G,0.0659,–,0.0738,0.0615,0.0447,0.0592,–,0.0605,–,0.0653,0.0494,0.0472,–,0.0731,0.0914,–,–
K7L,0.0597,0.0708,0.0567,0.0707,0.0702,–,0.0568,0.066,–,–,0.048,0.0439,–,–,–,–,–
P9I,0.0613,0.0743,–,–,–,–,–,0.0689,0.0671,–,–,0.0634,0.0484,0.0509,0.0792,0.0713,–
R10F,0.0536,0.0675,0.066,0.0609,0.0794,0.0725,0.0821,0.077,–,0.0586,0.0628,0.0653,–,–,–,0.0728,–
R10T,0.0529,0.0611,0.0642,0.0643,0.0631,0.0511,–,–,0.0379,–,0.0635,0.0665,–,–,0.0661,–,–
R10Y,0.0511,0.0698,–,0.0613,–,–,0.0638,0.0565,–,0.062,0.0619,0.0446,–,0.061,0.0572,0.0584,–
D11C,0.0669,0.0619,0.0625,0.0654,0.056,0.0488,0.0692,–,–,–,0.0666,0.0793,–,0.0608,0.0702,0.0705,–
P14L,0.102,0.0628,0.0656,0.0683,–,0.0675,0.0643,0.0826,–,0.0585,0.0592,0.0734,0.0646,–,0.0772,0.0636,–
I15T,0.0748,0.0661,0.0633,0.0574,–,0.0634,0.0642,0.0591,–,0.0645,0.0559,0.0721,0.0586,0.0686,0.0602,0.0627,–
S17I,0.0579,0.0573,0.0756,0.0566,–,–,0.0618,–,–,0.0616,0.0551,0.0599,0.0575,–,0.065,0.0611,0.0505
S17T,0.0641,0.0805,0.0685,0.0488,–,0.0801,–,0.0742,–,0.0507,0.0583,0.0616,0.0739,0.0712,–,0.0841,–
S18H,0.0634,0.0667,0.0569,0.0608,0.0543,–,–,–,–,–,0.0035,0.0658,0.0637,–,–,–,–
I19A,0.0716,0.0639,0.0613,0.0861,0.0418,–,0.0541,–,–,0.0676,0.0508,–,0.0649,0.0645,–,0.0559,0.0753
L22Q,0.0485,0.03,0.0436,0.0488,0.0471,0.0507,–,–,–,0.0795,0.0544,0.0408,0.0437,0.0461,–,–,–
T23D,0.0631,0.0622,0.0537,0.0611,0.0602,–,0.0615,0.0413,0.0627,–,0.0584,–,–,0.0563,0.0713,–,–
E25F,0.0711,0.0696,–,–,0.0617,–,0.0599,–,–,0.0739,0.0529,–,0.057,–,–,0.061,–
E25H,0.0719,0.0708,0.0562,0.0621,0.0638,0.0444,0.0646,0.0538,–,–,0.056,–,–,0.0715,0.0643,0.0399,–
E25M,0.0673,0.0733,0.0705,0.0692,0.0703,–,0.064,–,–,0.093,0.0636,0.074,–,0.0749,–,0.0632,0.0648
